Structures are written as SMILES. Like-named read-outs stand apart in the source and are kept apart here.

The subject of the assay is recRSV-A2line19F-[FireSmash]. Briefly: Reporter-based dose-response antiviral assay, recRSV-fireSMASh in HEp-2 cells. The following applies: human respiratory syncytial virus.
Setting [1] is: HEp-2, read-out: HEp-2 C50 (first).

On to `COc1c(F)c(F)c(Cn2c3cc(=O)n(Cc4cccc(C(F)(F)F)n4)c(C)c3c(=O)n2-c2ncc(F)cc2F)c(F)c1F` [AVG-388], for which the EC50 is, setting by setting: (HEp-2) 90 nM; (HEp-2, 48 h) 53 nM; under setting [1], 50 nM. `COc1c(F)c(F)c(Cn2c3cc(=O)n(Cc4cccc(Cl)n4)c(C)c3c(=O)n2-c2ccccn2)c(F)c1F` [AVG-389]: under setting [1], the EC50 was 90 nM.

On to `COc1c(F)c(F)c(Cn2c3cc(=O)n(Cc4cccc(Cl)n4)c(C)c3c(=O)n2-c2ncc(F)cc2F)c(F)c1F` [AVG-390], for which the EC50 runs as follows: (HEp-2, 48 h) 115 nM; under setting [1], 110 nM. Take `COc1ccc(Cn2c3cc(=O)n(Cc4cccc(Cl)n4)c(C)c3c(=O)n2-c2ncc(F)cc2F)cc1` [AVG-391]: the EC50 under setting [1] was determined as 960 nM.

On to `COc1ccc(Cn2c3cc(=O)n(Cc4cccc(C(F)(F)F)n4)c(C)c3c(=O)n2-c2ncc(F)cc2F)cc1` [AVG-392], for which the EC50 under setting [1] was found to be 810 nM.

Take `COc1c(F)c(F)c(Cn2c3cc(=O)n(Cc4cccc(C(F)(F)F)n4)c(C)c3c(=O)n2-c2ccccn2)c(F)c1F` [AVG-435]: the EC50 was 85 nM (HEp-2, 48 h) and 200 nM under setting [1]. The corresponding values for `COc1ccc(Cn2c3cc(=O)n(Cc4cccc(C(F)(F)F)n4)c(C)c3c(=O)n2-c2ccccn2)cc1` [AVG-436] are 203 nM and 80 nM.

Regarding `Cc1c2c(=O)n(-c3ccccn3)n(Cc3c(Cl)cccc3Cl)c2cc(=O)n1Cc1cccc(C(F)(F)F)n1` [AVG-445], the EC50 was 198 nM (HEp-2, 48 h) and 200 nM under setting [1]. The compound `Cc1c2c(=O)n(-c3ccccn3)n(Cc3c(Cl)cccc3Cl)c2cc(=O)n1Cc1cccc(C(F)(F)F)c1` [AVG-446] had an EC50 (HEp-2, 48 h) of 236 nM.

Source of the values: US20240352013A1, “BICYCLIC FUSED PYRAZOLE DERIVATIVES FOR THE TREATMENT OF RESPIRATORY INFECTIONS INCLUDING RSV” (GEORGIA STATE UNIVERSITY RESEARCH FOUNDATION, INC., priority 2021, published 2024).
